Measured values from the supplement of paper PMC5499739.
Whole data set: some 16,000 sequences, median “Z-score” near -0.37, cut for the highest 2% near 3.2. This is one part of the list.

What follows are sequences tested on RBM10 RRM1-ZnF (GST-tagged construct) (assay: RNAcompete 7-mer binding Z-score; higher = stronger binding preference).
Outline: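 Bound RNA was identified by microarray hybridisation after GST-tagged RBM10 constructs (20 pmol) had been mixed with 1.5 nmol of a designed pool of 241 399 RNAs up to 41 nt, transcribed from microarray-derived DNA templates. Binding ran for 30 min at 4°C in 1 ml Hepes pH 7.8 buffer with KCl, NaCl, glycerol, DTT, BSA and glutathione Sepharose beads, with four 2-min washes at 4°C afterwards. For every heptamer motif, a one-sided Z-score for enrichment was computed across the probes that contained it.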

Sequence	RNAcompete 7-mer binding Z-score
GUACGUA	0.352
UCGCUCU	-0.772
GGAUGCU	0.8
ACACAUA	-0.61
CCAAGCA	-0.535
GCUUGGC	-0.126
UAUCCGA	-0.815
GCUGUAU	-0.376
CGGCUCC	-0.353
CGGGACA	0.807
CUUAUAA	-0.714
UAUGCUU	-0.604
AGUGACU	-0.184
GAACGCG	0.244
CGAUAAG	0.348
UAGCAAA	-0.178
CCGGUAU	-0.197
AUUAUGU	-0.422
GUCGUAG	0.056
UUCACUG	-0.655
CUCGCUG	-0.623
GAUUUGC	-0.444
UUUUUAG	-0.522

Sequence	RNAcompete 7-mer binding Z-score
AGACUCG	-0.714
GCGUCUG	-0.295
ACUCAUC	-0.746
AUUGGCU	-0.0187
ACCGUUG	-0.399
CAAACCU	-0.805
UUAGGCC	-0.48
GAUGGCA	1.06
UGGGCGU	2.14
GGCAGAG	1.85
UCAGACU	-0.623
UUGUUCC	-0.626
GAGCAAG	1.33
CCAUCCU	-0.763
CCUGUGG	0.339
CGGUUUA	0.235
UCUCCGA	-0.743
AUAAUAG	0.0333
UGAAAUC	-0.49
ACAAUAG	0.0528
CAGGGAG	2.8
UGAUUCC	-0.698
ACGGAGU	1.28

Sequence	RNAcompete 7-mer binding Z-score
CGGAAGC	0.283
CGAUAAU	-0.535
CCUGAGA	-0.555
UUGUGUC	-0.526
UGAGGUC	0.683
GUCAAUG	-0.035
CAUCUGC	-0.72
UCGGGCU	0.069
GGUUUCC	0.3
UACUCCG	-0.6
CGUCUUA	-0.792
GGCCCUU	-0.769
CAAUACA	-0.441
AGCGUGC	0.0398
AGUAUAU	-0.363
UAUGCAA	-0.0382
AUUGUAA	-0.412
UACGUUA	-0.545
CCCAACU	-0.727
UACGGGA	1.8
CGGCCUU	-0.727
CAUCGAC	-0.668
CUGGGUA	2.13

Sequence	RNAcompete 7-mer binding Z-score
GCUUCUG	-0.681
CAUACUA	-0.789
AGCUUCC	-0.821
GCUCAUC	-0.818
UUGCGUU	-0.331
UAACACA	-0.246
AUCGUCA	-0.662
GGGCCUA	0.199
CGCUAGC	-0.636
GGCCCAG	-0.357
GCGGCGC	0.641
AACGAGG	1.5
GGCAGAA	1.19
GUGACAA	0.456
GGUUGAG	3.3
GUAAACC	-0.275
GACACAU	-0.467
GACGUCU	-0.688
UGACGGU	1.14
CUAGAAG	0.000789
UACUACU	-0.584
UUCGUGG	0.527
CUCUUAC	-0.928

Sequence	RNAcompete 7-mer binding Z-score
UCGUUUA	-0.646
GAUGGCU	0.748
CGGAGAG	0.894
CCCUCAC	-0.584
UCUCGCU	-0.717
CAACGAU	-0.409
GCCUACC	-0.568
UUAAACG	-0.5
UGACAUC	-0.542
GGAUAAA	1.38
CGGCGCA	0.0365
UUAGGGG	2.4
AAUUGCA	-0.448
ACCUAUU	-0.847
GAUGUGA	0.771
CCCCCCC	0.0885
GGGUGGU	4.8
UCGGCAG	-0.126
AUUAGUA	-0.168
UAACAGU	-0.0804
UACCGUG	-0.35
GUGUACC	-0.22
CGGUCUG	-0.243

Sequence	RNAcompete 7-mer binding Z-score
GUGUAUG	1.29
UACACGC	-0.691
CAAGUCG	-0.292
UUGGGUG	3.83
CGAAUUU	-0.795
CGAGGGC	1.06
GCAUCUG	-0.522
ACCAUCG	-0.623
UUAACAC	-0.561
GAUUCAG	0.017
CAAAACU	-0.6
CAGCGCG	-0.324
AAUUCGU	-0.548
UAAUCAU	-0.574
GGAAGUC	0.82
CCAGUGU	-0.6
GUCCACU	-0.558
UCCCCAU	-0.73
UAAGGCU	0.183
AAGCCGU	-0.629
GCCCCUG	-0.0869
AGUAGUU	0.105
UGGCUCG	-0.119

Sequence	RNAcompete 7-mer binding Z-score
ACCACAU	-0.779
GGAGGAU	2.46
UCUUUCG	-0.756
GCCCAUC	-0.701
CCGUAGU	-0.457
UGCGCCU	-0.532
UAAGGCG	1.03
AUACAGU	-0.00571
AGCGAAA	0.166
GGCCUUC	-0.639
GUGCUGA	0.761
GGUUCUC	-0.373
ACGUGAU	0.0495
AACCAGG	0.738
GGUGAUU	1.21
UGCACGU	-0.256
AUCAGGC	-0.00896
UGCAGCA	-0.461
GGCCUCA	-0.714
ACGGCCU	-0.629
AGGGUCC	0.573
UUGGGGA	2.82
AACAAAG	-0.0609

Sequence	RNAcompete 7-mer binding Z-score
UCCGCGC	-0.529
ACGCACC	-0.519
UUCAGGG	1.07
CCAUACA	-0.782
AACGAGA	-0.0804
AAUGUGA	0.657
ACUUGUC	-0.854
AUGUUUA	-0.311
GACGGCC	-0.363
ACAAGCA	-0.204
UUUUAAU	-0.633
AUUCAAA	-0.662
GUCGUCC	-0.454
AUAUCCU	-0.789
UGGAGCC	0.638
UCUCUAG	-0.688
UGUCGCC	-0.347
CGUAUCC	-0.753
CGUACGU	-0.0577
GCCAUGG	0.426
GGAGGUA	3.28
GGGGCGC	1.89
